Screen size: about 320,000 compounds; about 9,100 (2.8%) were called active. This list was built around the results that the source calls inconclusive (neither active nor inactive); the mix of calls is not that of the screen. The call rests on the fitted dose curve; in most records, active means well fitted activation curve with a large enough effect; inconclusive means small, poorly fitted or top-dose-only effect; inactive means no such curve, though single readings can be large or run the other way. Potencies beside an inconclusive call are fits to weak or partial responses and may not hold up.
test: qHTS Assay for Rab9 Promoter Activators; settings: Huh7 Rab9 promoter-luciferase reporter, luminescence, 24 h; series mostly up to 9.22 µM; activation, negative = inhibition: at the top concentration; further: nearly all actives have a fitted effect of over 60% in size; on activation, negative = inhibition: % of control where 0% means no effect
Procedure, shortened: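 Huh7 cells stably carrying Rab9 promoter–luciferase reporter, plated 1500 cells/well, compound added after 2 h and incubated 24 h at 37 °C; luciferase luminescence then read after 10 min with detection reagent.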
Potency means the concentration at half of the fitted maximal effect; tags describe the fitted curve by direction and shape.

activation, negative = inhibition, inactive:
CCOC(=O)c1sc(=S)n(-c2ccc(OC)cc2)c1N -12.7%
O=C(NCc1cccnc1)c1ccc(-c2cc(Cl)ccc2Cl)o1 -9.7%
O=S(=O)(Cc1ccc(Cl)cc1)N1CCN(Cc2ccccc2)CC1 1.54%
O=C(CN1CCN(Cc2ccccc2)CC1)N/N=C/c1c[nH]c2ccccc12 -1.71%
CCOC(=O)Nc1ccc2c(COC(=O)CNS(=O)(=O)c3cccc(Br)c3)cc(=O)oc2c1 -1.02%
Nc1c(C(=O)NCc2ccc3c(c2)OCO3)nnn1-c1ccc(OC(F)(F)F)cc1 10.9%
O=C(OCC(=O)N1CCC(Cc2ccccc2)CC1)c1ccc(CO)cc1 -6.52%
O=C(Cc1ccccc1)NNC(=O)c1ccc(NC(=O)c2ccccc2)cc1 1.87%
Cc1ccc(C)c(OCc2nc(-c3cccnc3)no2)c1 5.9%
Cc1ccc(S(=O)(=O)N2CCC(C(=O)OCC(=O)NC(C)c3ccc(F)cc3)CC2)cc1C (stereo not drawn) 1.94%
CCN(c1ccccc1)S(=O)(=O)c1ccc(OC)c(NC(=O)COc2ccc(C(C)=O)cc2)c1 -7.45%
O=C(NC1=NCCS1)c1sc2cc(Cl)cc(Cl)c2c1Cl 2.28%
COc1ccc(/C=C2\SC(=O)N(CCC(=O)NCCCn3ccnc3)C2=O)cc1 29.9%
CCC1CCCCN1C(=O)COC(=O)CN(C)S(=O)(=O)c1ccc(NC(C)=O)cc1 (stereo not drawn) -7.21%
CCN(CC)S(=O)(=O)c1ccc(-c2nnc(SCC(=O)Nc3nc(C)cs3)o2)cc1 -13.2%
C=CCC(C(=O)NC(C)c1ccccc1)C(=O)NC(C)c1ccccc1 (stereo not drawn) -2.15%
Cc1cc(C)n(CCOC(=O)c2sc3ccccc3c2Cl)n1 3.21%
CCOc1ccc(-c2nc(CSCC(=O)N3CCN(c4cccc(OC)c4)CC3)c(C)o2)cc1 -8.11%
CCN(CC)CCNC(=O)c1ccc(NC(=O)Nc2cccc3ccccc23)cc1 -4.16%
COc1ccc(CC(=O)Nc2cccc(-c3ccc4nncn4n3)c2)cc1OC -9.38%
Cc1nc2ccccc2nc1OCC(=O)Nc1cc(C(F)(F)F)ccc1N1CCOCC1 -4.12%
CNS(=O)(=O)c1ccc2c3c(cccc13)C(=O)N2C 2.9%
Nc1c(Cl)cc(-c2csc(NCCc3nc4cc(Cl)c(Cl)cc4n3CCCO)n2)cc1Cl 2.57%
COc1ccc(-c2cc(C(=O)O)nc3ccc4ccccc4c23)cc1OC 2.83%
Cc1cc(C(F)(F)F)n2ncc(-c3cccc(Br)c3)c2n1 8.7%
Cc1cccc(C)c1NC(=O)C1=C(O)c2ccccc2N(C)S1(=O)=O -2.88%
COc1ccccc1CNC(=O)c1csc2c1CCCC2 -3.65%
O=C(NN=C1CCCCCCCCCCC1)c1cccc(S(=O)(=O)N2CCOCC2)c1 -7.56%
COC(=O)c1c(C)[nH]c(C)c1-c1ccccc1Cl 1.36%
O=C(CN1C(=O)COc2ccc(S(=O)(=O)N3CCCC3)cc21)NCc1ccccn1 -0.632%

Potency, active:
COC(=O)c1cn(NC(=O)C2CCCCC2)c(=O)c2ccccc12 6.31 µM
Nc1ccccc1C(=O)Nc1cccc2ccccc12 2.82 µM
O=C1N=C(N2CCCC2)S/C1=C\C=C\c1ccccc1 0.562 µM
O=C(Nc1ccc(NC(=O)C2CC2)cc1)c1cccs1 1.26 µM
O=c1[nH]c(N/N=C/c2ccccc2)nc2ccccc12 2.24 µM
O=C(Nc1ccc(CN2CCOCC2)cc1)c1cc2ccccc2o1 0.631 µM
CCOc1ccc(-c2nc(-c3cccnc3)no2)cc1 0.562 µM
CCOC(=O)c1cnc2c(N=Nc3ccccc3)c(N)nn2c1N 1.12 µM
O=C(O)c1cc(N/N=C/C=C/c2ccccc2[N+](=O)[O-])ccc1Cl 3.55 µM
COc1ccc2c(c1OC)C(=O)N(c1cccc(C(F)(F)F)c1)C2 4.47 µM
O=C(/C=C/Nc1ccc(Oc2ccccc2Cl)cc1)c1ccco1 2.24 µM
COc1ccc(-c2cn3nc(C)c(C)nc3n2)cc1OC 2.82 µM
COc1ccc(-c2csc(Nc3cccc(C)n3)n2)cc1C 1.58 µM
O=C(Nc1ccc(Cl)c([N+](=O)[O-])c1)c1ccc2c(c1)OCCO2 0.891 µM
Cc1ccc(C(=O)Nn2cnc3ccccc3c2=O)cc1C 2.51 µM
Cc1ccc(OCCn2cnc3ccccc3c2=O)c([N+](=O)[O-])c1 1.78 µM

Potency, inconclusive:
COC(=O)C(Cc1ccccc1)NC(=O)CSc1nc(N)cc(=O)[nH]1 (stereo not drawn) 3.16 µM [activator, single point]
Cc1cc(C(=O)NCC(=O)O)c(C)o1 6.31 µM [activator, single point]
O=c1[nH]nc(SCc2nc3ccccc3s2)n1C1CC1 3.98 µM [activator, partial curve]
C=CCn1c(C)cc(C(=O)COc2nncc3ccccc23)c1C 2.82 µM [activator, partial curve]
CN(C)c1ccc(/C=N/NC(=O)CSc2ccccn2)cc1 5.62 µM [activator, single point]
O=C(c1ccco1)N1CCN(Cc2ccccc2Br)CC1 5.62 µM [activator, single point]
O=[N+]([O-])c1ccc(F)cc1OCc1nc(-c2cccs2)no1 3.55 µM [activator, single point]
CCC(C)C(=O)N1CCCC(c2nc(-c3cccs3)no2)C1 (stereo not drawn) 2.24 µM [activator, partial curve]
Cn1c(/C=C/c2ccccc2)nc2ccccc21 0.398 µM [activator, partial curve]
O=C(CC1CCCC1)Nc1ccc(Br)cc1 2.51 µM [activator, partial curve]
Cc1ccc(NC(=O)CCNC(=O)c2ccc(Cl)cc2)nc1 3.98 µM [activator, single point]
S=C(NCCc1ccc(Cl)cc1)NC1CCCCC1 2.82 µM [activator, partial curve]
Nc1nc(-c2ccc(F)cc2)cs1 3.55 µM [activator, partial curve]
O=C(NCCc1ccccc1)c1n[nH]c(=O)c2ccccc12 5.62 µM [activator, single point]
CCCN(CCC)CCCNC(=O)c1cc2cc3ccc(Cl)cc3nc2o1 5.62 µM [activator, single point]
Fc1ccccc1Nc1nc2ccccc2n2nnnc12 3.55 µM [activator, single point]
O=C(Nn1cnc2ccccc2c1=O)c1ccc(F)cc1Cl 5.01 µM [activator, partial curve]
CCS(=O)(=O)n1nc(-c2ccc(Cl)cc2)nc1SC 5.62 µM [activator, single point]
O=C(Nc1nc(=S)ss1)c1ccc(Cl)cc1Cl 2.82 µM [activator, partial curve]
C/C(=N/NC(=O)c1ccncc1)c1ccc(NC(=O)c2ccc(Cl)cc2Cl)cc1 3.55 µM [activator, partial curve]
O=C(Nc1ccccc1)Nc1cc(Cl)cc(Cl)c1 5.62 µM [activator, single point]
C=CCn1c(SC)nnc1-c1ccc2ncccc2c1 3.98 µM [activator, single point]
CCn1cnc2cc(NCc3ccc(OC)cc3)ccc21 3.16 µM [activator, partial curve]
COc1ccc2c(c1)C(=O)CC(c1ccc3c(c1)OCCO3)O2 (stereo not drawn) 3.98 µM [activator, single point]
COC(C(=O)N1CCC(CCC(=O)Nc2ccccc2)CC1)c1ccccc1 (stereo not drawn) 3.55 µM [activator, single point]
Cc1ccc(-c2nn(-c3ccccc3)cc2CO)o1 3.55 µM [activator, single point]
CC(=O)n1c(C=Nc2ccc(Cl)cc2)c(O)c2ccccc21 5.62 µM [activator, single point]
O=C(C1CC(c2ccc(F)cc2)=NO1)N1CCCCC1 (stereo not drawn) 6.31 µM [activator, single point]
COc1ccc(C(=O)/C=C2\NCC3c4ccccc4CCN3C2=O)cc1 (stereo not drawn) 3.16 µM [activator, partial curve, poor fit]
O=C(O)/C=C/C(=O)c1ccc2c(c1)CCc1ccccc1-2 0.708 µM [activator, single point]
CC(C)C(OC(=O)c1ccccc1)c1nccc2ccccc12 (stereo not drawn) 2.82 µM [activator, partial curve]
O=C(NCCc1ccccc1)c1ccc2c(c1)OCO2 0.0891 µM [activator, full curve, poor fit]
CCC(C)c1ccc(NC(=S)NN2CCOCC2)cc1 (stereo not drawn) 6.31 µM [activator, single point]
CCOc1ccc2nc(NC(=O)C3CCN(C(=O)c4ccco4)CC3)sc2c1 3.55 µM [activator, single point]
COc1ccc(Nc2nnc(SCC3CCCO3)s2)cc1 (stereo not drawn) 3.98 µM [activator, single point]
O=C(CSc1nnc2ccc3ccccc3n12)c1ccc(F)cc1 5.62 µM [activator, single point]

Potency, inactive:
C[C@@H](O)CC(=O)O

From PubChem BioAssay AID485297 (National Center for Advancing Translational Sciences (NCATS), 2010)
